# Test results: ChEMBL document CHEMBL4888484, “Replenishing the malaria drug discovery pipeline: Screening and hit evaluation of the MMV Hit Generation Library 1 (HGL1) against asexual blood stage Plasmodium falciparum ,using a nano luciferase reporter read-out” (2022)
# The campaign covered roughly 150,000 compounds. About 540 (0.36%) showed an effect of 50% or more. This is one part of the list.
# System: Plasmodium falciparum
# Experiment: Primary screen in NF54 nanoGlo assay, in single point, at 2uM, 72h; a lower Z score goes with more inhibition
# Format: functional, Erythrocyte
# Settings: timepoint 72 hour
Compound,% Inhibition,Z score
Cc1cccc(CN[C@H]2CCOC2)c1Br,-18%,3.16
Cc1cccc(-n2nc3nc(NCCN4CCCCC4)nc(-c4ccc(Cl)cc4)c3c2N)c1,-7%,0.71
NC(=O)c1cc(OC2CCN(CC(F)(F)F)CC2)ccn1,-8%,0.98
O=C(Nc1ccn(-c2ccccc2)n1)c1ccccc1,-6%,0.7
CCC(CC)C(=O)N1CC[C@H]2CC(=O)Nc3cccnc3OCC[C@H]2C1,-12%,2.32
CN1CC(=O)N(CC(=O)N2CCC[C@H](c3nc4ccccc4s3)C2)C1=O,-4%,0.37
CCC(C)C(=O)C(=O)N1CCC(C2(CC)NC(=O)N(Cc3ccc4c(c3)OCO4)C2=O)CC1 (stereo not drawn),-3%,0.3
COCCN(CCOC)C(=O)c1cc(C)nc2c1c(C)nn2C(C)(C)C,1%,-0.13
Clc1cccc(OCc2nc3ccccc3o2)c1Cl,-7%,0.95
COc1cncc(O[C@H]2CCN(C(=O)c3ccc(C#N)cc3)C2)n1,-1%,0.1
c1ccc(-c2nnc(-c3ccncc3)nc2-c2ccccc2)cc1,-7%,0.61
CCN(CC(F)(F)F)C(=O)C[C@@H]1C=CCC1,-15%,1.71
COC(=O)c1ccc(NC(=O)c2cccc(-c3nc(-c4ccc(F)cc4)no3)c2)cc1,-7%,0.89
Cc1cccc([C@@H](NC(=O)Cc2ccccc2C)C2CC2)n1,1%,-0.15
CCn1c(=O)c(CCC(=O)NCc2ccccc2)nc2c(C)nn(-c3ccccc3)c21,6%,-0.89
COc1cccc2c1N(C(=O)Cc1ccccc1)C(C)(C)c1ssc(=S)c1-2,-13%,1.48
Cc1nc(C(=O)Nc2ccc(C(N)=O)cc2)c(-c2ccc(F)cc2)s1,-6%,1.16
CC1=NO[C@](C)(C(=O)NCc2cc(C3CC3)[nH]n2)C1,-8%,0.84
Cc1ccc(C(=O)N[C@@H]2CN(C3CCOCC3)C[C@H]2CO)cc1F,1%,-0.17
Cc1cc(=O)n(CC(=O)N2CCC(C)CC2)c(-c2ccc(F)cc2)n1,31%,-4.52
COc1cccc2c1Oc1ncccc1N(C(=O)CCC(=O)NCCCN1CCCCC1)C2,12%,-1.56

Compound,% Inhibition,Z score
O=C(C1CCN(S(=O)(=O)c2cccc3nsnc23)CC1)N1CCC(Cc2nc(C3CCOCC3)no2)CC1,-17%,2.25
CCCNC(=O)c1ccc(COc2ccc3c(c2)[C@H](c2cccc(C)c2)N(C(=O)C2CCCC2)CC3)o1,-3%,0.39
O=C([C@H]1CCCN(c2ncnc3c2nc2n3CCCCC2)C1)N1CCCCCC1,-10%,1.61
CCCOC[C@H]1CCN(C(=O)Cn2cnnn2)C1,0%,0.06
O=C(Nc1ccc2c(c1)C(F)(F)OC(F)(F)O2)N1CCOCC1,-10%,1.14
O=C(NC[C@H]1Cn2c(-c3ccc(F)cc3)cnc2CO1)c1cccnc1,35%,-3.96
Cc1ccc(-c2nnc(NC(=O)c3c(C)noc3C)[nH]2)o1,-2%,0.24
Cc1nnnn1[C@@H](Cc1ccccc1)C(=O)NCc1nccs1,-6%,0.81
COc1ccc(-c2cc(C(=O)N(Cc3ccncc3)CC(C)C)[nH]n2)cc1,2%,-0.28
Cc1cccc(OC(=O)c2snnc2C)c1,0%,-0.05
Cc1ccc(C(=O)Oc2ccc(N3CCCC3=O)cc2)cn1,-12%,1.66
COC(=O)CC[C@H]1NC(=O)N(c2ccc(OCC(F)(F)C(F)F)nc2)C1=O,-9%,1.48
CN(Cc1ccc(-n2cccn2)cc1)c1cc(N2CCC(O)CC2)ncn1,-6%,1.21
C[C@@H](C(=O)N(C)C)S(=O)(=O)Nc1cccnc1Nc1ccccc1,-12%,2.45
COc1cccc(-c2ccc(N(C)CCO)nn2)c1F,-15%,2.77
COc1cc(C)c(-c2ccc(C(=O)N[C@@H](C)c3cnn(C)c3)cc2)cc1C,11%,-1.24
O=C(N[C@H]1CCN(C2CCOCC2)C1=O)c1ccnn1CC(F)F,-1%,0.09
CN1CCN(C(=O)c2ccc(-c3ccccc3F)o2)c2ccccc2C1,-10%,0.99
C[C@@H](CC#N)N(C)c1nccc(C(F)(F)F)n1,-6%,0.73
CO[C@@H](CNS(=O)(=O)CC(C)C)c1ccco1,-10%,2.06
CCCn1cc(N[C@H]2CCN(c3c(F)cccc3F)C2=O)cn1,1%,-0.17

Compound,% Inhibition,Z score
CC(C)CCCNC(=O)c1cc(S(N)(=O)=O)oc1Cl,-1%,0.17
O=S1(=O)CCC(NCCC2CCCO2)c2cc(F)c(F)cc21 (stereo not drawn),31%,-4.48
CC(C#N)CN(C)c1nc2c(N(C)CC(C)C#N)ncnc2s1 (stereo not drawn),-1%,0.18
CC(=O)C[C@@]1(O)C(=O)N(CCCOc2ccc(Cl)cc2)c2ccc(C)cc21,-7%,0.86
C[C@@H](CNC(=O)Nc1nc(C(F)(F)F)co1)c1nccs1,5%,-0.56
CCCn1nc(C(=O)Nc2cccc(Cl)c2)cc1-c1ccc(Cl)s1,-14%,2.74
CC1(C)C(=O)Nc2ccc(C(=O)NCc3ccc4c(c3)COC4)cc21,-8%,1.05
O=C(Nc1cccc(F)c1)Nc1ccnn1C1CCN(Cc2cc[nH]n2)CC1,-7%,1.08
Cn1cc(C(C)(O)CNC2CCCc3sccc32)cn1 (stereo not drawn),-3%,0.32
COC[C@H](C)NCc1ccccc1C(F)(F)F,-9%,1.73
COc1cccc(CN2CC3(CCN(c4cc(OC)ncn4)CC3)CC2=O)c1,12%,-1.56
COCc1nc(-c2ccc(C)cc2)nc(-c2ccc(C)cc2)n1,0%,0.03
Cc1cc(=O)cc(O)n1Cc1nnc2ccccn12,-9%,1.17
COc1ccc(CN2CCN(S(=O)(=O)c3ccc4c(c3)C(C)(C)C(=O)N4C)CC2)c(OC)c1OC,-6%,1.08
C[C@@H](c1ccon1)N(C)C(=O)c1cnc(Cc2c(Cl)cccc2Cl)nc1O,0%,-0.02
COc1ccc(N2CCN(C(=O)Cn3cnc4c(-c5cccc(OC)c5)cn(C)c4c3=O)CC2)cc1,-5%,0.76
O=C(COc1cccc(Cl)c1)NC[C@@H]1C[C@H](F)CN1,15%,-1.92
O=C(N[C@@H](Cn1nccn1)c1ccccc1)c1cc(Br)ccc1Cl,57%,-6.89
Brc1cnc(N[C@H]2CCCc3cn[nH]c32)nc1,-14%,1.92
CCOC(=O)C(Cc1ccccn1)C(=O)OCC,4%,-0.48
O=C(NC[C@H]1CCCO1)c1cc2n(n1)CCCO2,-18%,2.79

Compound,% Inhibition,Z score
CC(C)[C@@H](C(=O)NCCn1cnnc1C1CC1)N1CCCCC1,-14%,1.91
CCCNc1ncc(CN2CC[C@H](NC(=O)c3cccnc3)[C@@H](O)C2)cn1,-8%,0.78
C(=C\c1nc2sc(/C=C/c3ccccc3)nc2s1)/c1ccccc1,-12%,1.56
Cc1nc(N2CCc3c(c(C(N)=O)nn3C)C2)ccc1Cl,2%,-0.51
Nc1c2c(-c3cccc(F)c3)nc(N3CCN(C(=O)[C@@H]4CCCO4)CC3)nc2nn1-c1cc(F)ccc1F,-7%,1.22
Cc1ccccc1-n1c(=O)n(Cc2ccccc2)c(=O)c2c1ncn2Cc1ccccc1Cl,-7%,0.64
c1cnc2c(c1)nnn2OCC1CCCCCC1,16%,-1.98
Cc1cc(CN2CCS(=O)(=O)C[C@H]2C2CC2)ccc1F,-1%,0.15
COc1ccc(-c2cc3n(n2)CCCN(C(=O)c2ccccc2Cl)C3)cc1OC,1%,-0.07
COc1ccc(Cl)cc1C(=O)N[C@@H]1COCC[C@@H]1OCCN(C)C,-8%,1.41
CCOc1cc(N2CC(N[C@H]3CCOC3)C2)ncn1,-16%,2.45
Cc1cc(=O)[nH]c(C)c1NS(=O)(=O)NCc1ccccc1,7%,-0.72
COc1ccc(CNCc2c3c(nn2C)CCCC3)c(Cl)c1,-14%,1.61
CC1CCCCC1OCCN1CCCCC1C(N)=O (stereo not drawn),-5%,0.84
C[C@H]1CCCCN1CCCCNC(=O)Nc1cccc(OC(F)F)c1,-4%,0.36
O=C(c1ccncc1)N(Cc1cc2ccccc2nc1O)C[C@H]1CCCO1,-20%,2.31
CCO[C@H]1COC[C@@H]1Nc1nc(N)nc(C)c1Cl,22%,-2.99
COc1ccc(OC)c(S(=O)(=O)N2CCCN(C)c3ccccc32)c1,-12%,1.33
Cc1c2c(n(Cc3ccc(F)c(F)c3)c1C(=O)NCc1ccncc1)CCCC2,7%,-0.69
CC(C)c1cc(CNC2CCN(Cc3ccco3)CC2)no1,4%,-0.7
Cc1cc(CN(c2ccc(C#N)cc2)S(C)(=O)=O)on1,-8%,0.73
